Reference: the supplement of paper PMC11417369
± gives the standard deviation of the averaged measurements. Some of the results follow.

What follows are sequences tested on PfAP2-G AP2 domain (GST-tagged) (assay: gcPBM binding intensity (ln(normalized median fluorescence intensity)); higher = stronger DNA binding).
Outline: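 GST-tagged P. falciparum DNA-binding domains, expressed in E. coli (about 25 μg on average), were applied for 1 h to an Agilent 4 × 180k array of primer-extended double-stranded 36-bp intergenic genomic probes plus negative controls. The binding buffer was 1× PBS with 1% milk, 0.2 mg/ml BSA, 0.5% salmon testes DNA and 0.03% Triton X-100. Bound protein was detected with Alexa488 anti-GST antibody and scanned at 488 nm. Binding intensity is the highest Masliner-normalised natural-log median intensity across replicate spots of either probe orientation.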
For “CCTATATAATATATTTGTACTTAATAATTAAAGTGT [XGTACX_site5151]”, the “gcPBM binding intensity (ln)” value was 11.1 ± 0.69.
“TATATATATATATATTGTACATATGTAACCTTTTAA [XGTACX_site3914]” was tested, and the “gcPBM binding intensity (ln)” value was 10.9 ± 0.72.
For “TATCAAAATTAGTATACACACAAAATTAATCAAATA [CACACA_site7117]”, the “gcPBM binding intensity (ln)” value was 10.1 ± 0.28.
“TCAACTATCAATATAGTGCATTTTTTTTGGAAAACC [GTGCAC_site9927]” was tested, and the “gcPBM binding intensity (ln)” value was 9.985 ± 0.049.
In the case of “TTTTTTTTTTTTTGTAGTACATTATGTATATTTTTA [XGTACX_site7810]”, the “gcPBM binding intensity (ln)” value is reported as 11.3 ± 1.
For “TTAATAAGAGAGCAATAGGTGGACTGTTTCTTTTAT [CACACA_negctrl_site1239]”, the “gcPBM binding intensity (ln)” value was 10.8 ± 0.6.
“GTTAAAATAATATGGTGTACAAATATATAAGTTCAT [XGTACX_site3262]” was tested, and the “gcPBM binding intensity (ln)” value was 11.4 ± 0.79.
For “TAAAATAAAAATTTATGTACACATAAAAAAACAAAA [XGTACX_site1112]”, the “gcPBM binding intensity (ln)” value was 11.5 ± 0.94.
In the case of “GAGAGTACCTATATTGCATGCAGACTTTTTAAATAT [TGCATGCA_site564]”, the “gcPBM binding intensity (ln)” value is reported as 11 ± 0.55.
“ATATATATATATAAAAGTACTTATTTTTATTTACAT [XGTACX_site4299]” was tested, and the “gcPBM binding intensity (ln)” value was 11.2 ± 0.71.
In the case of “GATACTCTCTTTTAATGTACAAAATTTTAAAAATTA [XGTACX_site1781]”, the “gcPBM binding intensity (ln)” value is reported as 10.8 ± 0.52.
For “TATAAAAAAAAAAAAAGTACTTAAATATAAATAAAT [XGTACX_site5052]”, the “gcPBM binding intensity (ln)” value was 11.4 ± 0.8.
With “TGTTTATACAATATTTGTACATATATTTTTATTTTT [XGTACX_site4104]” the “gcPBM binding intensity (ln)” value was 10.9 ± 0.59.
“TTTTAAATAAAAAAATTAAATTAAAATATATAAAAA [XGTACX_negctrl_site490]” was tested, and the “gcPBM binding intensity (ln)” value was 9.69 ± 0.25.
In the case of “CATTTTTACAACGTTGCACACTTCAAAAGGTTTACA [CACACA_site2760]”, the “gcPBM binding intensity (ln)” value is reported as 10.3 ± 0.16.
“GTTCCATGAGTATATACATGCATATATCTAGTTTAT [TGCATGCA_site388]” was tested, and the “gcPBM binding intensity (ln)” value was 10.1 ± 0.035.
For “TACCCTCGTATATATATACACACTAAAATACAGACA [CACACA_site4154]”, the “gcPBM binding intensity (ln)” value was 10.2 ± 0.28.
In the case of “ATTCATTCATATGTTACACACACACCCACCCATAAA [CACACA_site9066]”, the “gcPBM binding intensity (ln)” value is reported as 10.5 ± 0.34.
With “AATTAAAAAAAATACACACACACATACCCATATATA [CACACA_site5767]” the “gcPBM binding intensity (ln)” value was 10.2 ± 0.16.
With “AATGATATATTATAAACACACAAAGATGAATATATA [CACACA_site2818]” the “gcPBM binding intensity (ln)” value was 9.77 ± 0.22.
For “TATGTACAGACATATACACACCTCTATAATCTATAT [CACACA_site6482]”, the “gcPBM binding intensity (ln)” value was 10.8 ± 0.63.
In the case of “CTAAAGTAAATTTAAGCACACACAACGAATTTTTAT [CACACA_site8599]”, the “gcPBM binding intensity (ln)” value is reported as 10.15 ± 0.035.
“AATTTATGTTTTAAAAGTACTTTTCTAATTTATAAA [XGTACX_site1593]” was tested, and the “gcPBM binding intensity (ln)” value was 11.1 ± 0.72.
With “TCCCTTTGTATATATATATAAATATATATATATATA [CACACA_negctrl_site157]” the “gcPBM binding intensity (ln)” value was 9.87 ± 0.14.
With “CATTAAAATGGTAAATGTACATATCCATCTTCTCAC [XGTACX_site4636]” the “gcPBM binding intensity (ln)” value was 11.1 ± 0.6.
With “TTTATCGAATATAATAGTACATAAAAAAAAAAAAAA [XGTACX_site1734]” the “gcPBM binding intensity (ln)” value was 11.1 ± 1.1.
With “AGATTATATAAAAAAGTGCATATTTTCATTTTTTTT [GTGCAC_site9448]” the “gcPBM binding intensity (ln)” value was 9.98 ± 0.18.
“ACATTTTTTTTGTGAGTCTTTGCGGCATCAAAATTT [XGTACX_negctrl_site348]” was tested, and the “gcPBM binding intensity (ln)” value was 10.2 ± 0.29.
With “AAAAAAGAAAAAAACTGTACATGATAAATATTTATT [XGTACX_site7270]” the “gcPBM binding intensity (ln)” value was 10.9 ± 0.45.
“TTATGAAGCAGACATGCATGTTATGGCTTAAATAAT [TGCATGCA_site492]” was tested, and the “gcPBM binding intensity (ln)” value was 9.79 ± 0.13.
“ATTATGTTTCTTTTTTTTTTTAAAGGATGTCTTTTT [CACACA_negctrl_site974]” was tested, and the “gcPBM binding intensity (ln)” value was 9.855 ± 0.007.
For “TATAAATATATATACACACACATATATATTATATAT [CACACA_site596]”, the “gcPBM binding intensity (ln)” value was 9.99 ± 0.11.
With “AAAAAATGATAATATACACACTTATGGGAGAGCGCA [CACACA_site5398]” the “gcPBM binding intensity (ln)” value was 9.86 ± 0.057.
“TTTAAGCAAAAACACACACACATATATATATATATA [CACACA_site349]” was tested, and the “gcPBM binding intensity (ln)” value was 10.1 ± 0.54.
For “TATTTAATACGGACTCATAAATCTTAATAAAAAAAA [CACACA_negctrl_site434]”, the “gcPBM binding intensity (ln)” value was 10.7 ± 0.71.
With “AATATTAAACAAAATAAATATATAAAAAATAAATAA [GTGCAC_negctrl_site93]” the “gcPBM binding intensity (ln)” value was 9.77.
With “AAGTTATATTTGTGTACACATAATTTTATACTAATA [CACACA_site5553]” the “gcPBM binding intensity (ln)” value was 11.6 ± 0.76.
For “GACATATATATAAAATGTACATATATATTTACATAT [XGTACX_site7822]”, the “gcPBM binding intensity (ln)” value was 11 ± 0.64.
“TTATTTATAAACATATGTACTAATACATGATTAACA [XGTACX_site7645]” was tested, and the “gcPBM binding intensity (ln)” value was 11 ± 0.72.
With “TGTTCTTTATTTTATTGTACTTTTAAAATTCCTTTA [XGTACX_site8058]” the “gcPBM binding intensity (ln)” value was 11.5 ± 0.86.
“TGATAATAAGCATACACACACACACTAGAAAAAAAA [CACACA_site4558]” was tested, and the “gcPBM binding intensity (ln)” value was 10.01 ± 0.099.
In the case of “TATTATAATAAGAAGTGTACGTGTTTTTATAAATAA [XGTACX_site575]”, the “gcPBM binding intensity (ln)” value is reported as 11.6 ± 0.94.
With “AAAAAAAAAAGACATGCATACGCTAATTTTTAGTTG [TGCATGCA_site300]” the “gcPBM binding intensity (ln)” value was 10 ± 0.13.
